The text below walks through data of PubChem BioAssay AID504444 (National Center for Advancing Translational Sciences (NCATS), 2011).

Hit rate of the full screen: of about 360,000 compounds, about 7,500 (2.1%) were called active. Not shown: some 20% with an inconclusive outcome. Calls come from the whole dose curve; as a rule, active = well fitted inhibition curve with a large enough effect; inconclusive = small, poorly fitted or top-dose-only effect, or effect the other way; inactive = flat fitted curve, though single readings scatter. The entries are a selection whose mix differs from that of the whole data set.
% is set by controls: 0 for no effect and ±100 for the full control effect; potency is the fitted concentration of half-maximal effect.

The assay can be described thus: Nrf2 qHTS screen for inhibitors. Note: nearly all actives have a fitted effect of over 60% in size. The note with it: A549 ARE-Fluc reporter, luciferase luminescence, 18-24 h; series mostly up to 46 µM; activity change, negative = inhibition: at the top concentration. The procedure, abridged: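 Quantitative HTS in A549 cells stably bearing an antioxidant response element-firefly luciferase construct. Inhibition of Nrf2-driven transcription was scored by luminescence after 18-24 h of compound exposure at 37 °C.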
On the technique in general: qHTS replaces the single test concentration by a dilution series.
For `O=C(Nc1ccc(C(F)(F)F)cc1)C1CCN(c2cnccn2)CC1`, the “activity change, negative = inhibition” value is inactive: 15.4%.

Regarding `O=C1N[C@@H](Cc2ccccc2)COC(=O)[C@H](Cc2ccc(F)cc2)C/C=C\C[C@@H]1CC(=O)N(CCO)Cc1ccccc1`, the “activity change, negative = inhibition” value was inactive: -20.7%. As to `COC(=O)/C=C1/S/C(=N/N=C/c2ccco2)NC1=O`, the “activity change, negative = inhibition” value is inactive: -5.02%. Consider `COc1ccc2ccc3c(c2c1)N=C[C@]1(O3)N(C)c2ccccc2C1(C)C`, for which the “activity change, negative = inhibition” value was inactive: -15.1%. Take `O=C1NCCOC(=O)[C@@H](Cc2ccc(F)cc2)C/C=C\C[C@@H]1CC(=O)N(CCO)Cc1ccccc1`: the “activity change, negative = inhibition” value is inactive: -3.74%.

Consider `O=C(c1ccc2c(c1)N(Cc1ccc(F)cc1)C(=O)c1ccccc1S2(=O)=O)N1CCN(c2ccccn2)CC1`, for which the “activity change, negative = inhibition” value is inactive: 17.2%. As for `CC1=CC(C)(C)N(S(=O)(=O)c2ccc(C)cc2)c2ccccc21`, the “activity change, negative = inhibition” value was inactive: -6.98%. Regarding `Fc1ccc(SCCc2ccccn2)cc1`, the “activity change, negative = inhibition” value was inactive: 11.5%.

Turning to `O=C(O)/C=C\C(=O)NCc1ccccc1`, the “activity change, negative = inhibition” value was inactive: 1.23%. Turning to `Cc1ccc(-n2c(-c3ccccc3)c[n+]3c2CCC3)cc1`, the Potency is active: 5.8 µM. For `C=CC[C@@H](CC(=O)N(CCO)Cc1ccccc1)C(=O)N[C@@H](C)COC(=O)[C@@H](CC=C)Cc1ccc(F)cc1`, the “activity change, negative = inhibition” value was inactive: 9.66%. For `COc1ccc(OC)c(NC(=O)C2CCN(S(=O)(=O)c3ccc4c(c3)CC(C)N4C(C)=O)CC2)c1` (centres undefined), the “activity change, negative = inhibition” value is inactive: -19.9%. Take `COC(=O)C1=C[C@@H](C(=O)OC)C2C3=C(C(=O)[C@@]2(C)NC(=O)c2ccccc2)[C@H](C)n2c(=O)n(-c4ccccc4)c(=O)n2[C@@H]3C1` (some centres undefined): the “activity change, negative = inhibition” value is inactive: 1.68%. Turning to `COc1cc(C(CCN2CCOCC2)c2c(OC)cc(OC)c3c(C)cc(=O)oc23)cc(OC)c1OC` (centres undefined), the “activity change, negative = inhibition” value was inactive: -2.01%.

Turning to `Oc1ccc(CNCc2ccccc2F)c2cccnc12`, the Potency was active: 1.3 µM. Regarding `C[C@@]12CCC=C[C@H]1[C@H](c1ccc3ccccc3c1Br)N(Cc1ccccc1)C2=O`, the “activity change, negative = inhibition” value is inactive: -17.3%.

Consider `CN(C)c1ccc(O)c2c1CC1CC3[C@@H](N(C)C)C(=O)C(C(N)=O)=C(O)[C@]3(O)C(=O)C1=C2O` (some centres undefined), for which the “activity change, negative = inhibition” value was inactive: -6.02%.

With `Cc1ccc(NC(=O)CN(C)S(=O)(=O)c2ccc3c(c2)n(C)c(=O)c(=O)n3C)c(C)c1`, the “activity change, negative = inhibition” value was inactive: 4.28%. Turning to `O=S(=O)(c1ccc2ccccc2c1)N1CCOCC1`, the “activity change, negative = inhibition” value is inactive: 15.7%. `C[C@@H]1CC[C@]2(O[C@@H](CCO)C[C@@H](O)[C@@H]2O)O1`: the “activity change, negative = inhibition” value was inactive: 3.4%. Consider `Cc1ccc(C)c(CNS(=O)(=O)c2ccc3c(c2)C(C)(C)C(=O)N3C)c1`, for which the “activity change, negative = inhibition” value was inactive: -12.6%. In the case of `O=C(Nc1ccc(-c2nc3ccccc3s2)cc1)c1cc(-n2cnnc2)ccc1Cl`, the Potency is active: 2.31 µM. Take `COC(C[C@@H]1O[C@@H]1[C@@H](O)[C@H](C)OCc1ccccc1)OC`: the “activity change, negative = inhibition” value was inactive: 17.7%. For `COC(=O)c1c(NC(=O)CSc2nncs2)sc2c1CCCCC2`, the Potency is active: 18.4 µM.
